Results on 172 sequences are retold here after PMC10668032.

The other results are listed elsewhere or left out. At the low end of the ranking the order means little.

The target in the assay is SIX1 homeodomain (reference allele) (UniProt Q15475). Description: universal protein binding microarray. As to conditions: Universal all-10-mer PBM (8x60K, AMADID 030236), 300 nM GST-tagged protein, Alexa Fluor 488 anti-GST; buffer, salt, pH and temperature not stated; high values mean tight binding; most listed sequences are background and not binding sites; double strand, one strand shown.
AGGGTATA: the binding signal turned out to be 0.407 E-score.
The value for CCTAGACC was -0.0747 E-score.
Consider AACGATAT, for which the binding signal came to 0.408 E-score.
Under CTTACTTC stands -0.133 E-score; under AGGGTGCA, -0.0169 E-score; under ACTCAGCC, -0.244 E-score.
The value for AGCCGATG was 0.0858 E-score; that for AGGTTAGG was -0.0245 E-score.
For the sequence GTCGGGAA, the binding signal is -0.00536 E-score.
The value for CAACACAG was -0.147 E-score.
Regarding TGATCCCA, the binding signal came out at 0.376 E-score.
The value for CTTCTGAA was -0.0211 E-score; that for ACCATGGT was 0.196 E-score; that for CGCGCGTA was 0.0493 E-score.
As to ACCTAGAA, the binding signal was -0.0812 E-score.
The value for ATCGCTCA was 0.192 E-score.
The value for AACTAACG was -0.16 E-score; that for AACATATA was 0.235 E-score; that for AACCATGC was 0.0441 E-score.
In the case of CGATTGTA, the binding signal was 0.023 E-score.
Under CTAGGTGC stands -0.0986 E-score; under CCTACGAG, -0.0354 E-score.
Turning to AATTCGAG, the binding signal was -0.153 E-score.
Under ACCAGAGC stands -0.121 E-score; under AGATGTAC, -0.118 E-score; under GAGTCCCA, -0.219 E-score.
Consider TCGAGCGA, for which the binding signal is -0.0916 E-score.
Under CGCCCCAC stands 0.0384 E-score.
Regarding CAATTCAC, the binding signal is -0.0788 E-score.
On to AACTTTAG, for which the binding signal is -0.147 E-score.
Under CTGCATGC stands -0.164 E-score; under ACCGTTCC, -0.151 E-score; under CATTCATC, -0.145 E-score.
The value for GCGGGCGA was -0.0854 E-score; that for GTGGGGGA was 0.0152 E-score; that for GCCTATAC was 0.0519 E-score.
As for TATGGAAA, the binding signal was -0.0686 E-score.
The value for CCGACCTA was 0.0995 E-score; that for AGGGTTGA was 0.0587 E-score; that for AGATCAGA was 0.215 E-score.
As for CTAGAATA, the binding signal came to 0.125 E-score.
For the sequence AACCTCTT, the binding signal was -0.0825 E-score.
Under CGATGTGA stands 0.0964 E-score.
In the case of TGCTACCA, the binding signal was -0.128 E-score.
The value for AAAGTTGC was -0.218 E-score; that for ACGTAATC was -0.0574 E-score; that for ATCGGTCC was 0.0975 E-score.
Under ACGCGGGA stands 0.105 E-score.
Under ACGTGAAG stands -0.0195 E-score; under AACCGTGA, -0.0427 E-score.
Regarding AGCCAGGG, the binding signal was -0.0249 E-score.
Under AGATAGAT stands 0.23 E-score.
On to CAATTACA, for which the binding signal is -0.0413 E-score.
For the sequence GACTTGAA, the binding signal is -0.238 E-score.
With AGCTCCAT, the binding signal is -0.0632 E-score.
The value for ACGACAGG was -0.0819 E-score.
The value for ATCATATG was 0.281 E-score; that for AGTGTTCA was -0.198 E-score.
For ATAAGGCC, the binding signal was -0.133 E-score.
Under GAGAGAAA stands -0.34 E-score; under CGGCATAC, 0.0306 E-score; under GACCCCCC, -0.0123 E-score.
With AGTGATAG, the binding signal came out at 0.32 E-score.
The value for GCCGTACC was 0.0248 E-score; that for TAGGCGCA was 0.0473 E-score; that for AAACAAAA was -0.336 E-score.
Under GCTGCAGA stands -0.021 E-score.
Consider CGATATAA, for which the binding signal came to 0.243 E-score.
Under TAAGATGA stands 0.0389 E-score.
Regarding TCTCAACA, the binding signal was 0.0997 E-score.
The value for ACGGTCTC was 0.0782 E-score; that for GCGGAAGC was -0.0462 E-score; that for GCCCGAGC was -0.183 E-score.
The value for GCAGCGAA was -0.363 E-score; that for TAGCCAGA was 0.0575 E-score; that for GCGGTCGA was -0.126 E-score.
The value for TGCATACA was 0.0548 E-score; that for CATCCCTA was 0.146 E-score.
On to CTCCATAC, for which the binding signal was 0.114 E-score.
The value for ATATTCAT was 0.0532 E-score; that for GAATCAAA was -0.108 E-score; that for AACACGGT was 0.0514 E-score.
Under CGGTCGGC stands -0.159 E-score.
The value for CACGTCGC was -0.359 E-score.
Take GTCTTACA: the binding signal was -0.0713 E-score.
The value for AGACCGAA was -0.0523 E-score; that for AACTGACT was -0.293 E-score; that for GAGTTAAA was -0.22 E-score.
Regarding AAACGAGC, the binding signal is -0.0932 E-score.
The value for CGTCTTAC was 0.0461 E-score.
Under AATCGACC stands -0.0876 E-score; under AGGGTGGC, 0.0536 E-score; under TCTCCGAA, 0.0408 E-score.
The value for CAGTTATC was 0.176 E-score; that for ACCGGGAC was -0.23 E-score.
For GTTGGGCA, the binding signal is -0.145 E-score.
Under CGTCTACA stands -0.0416 E-score; under CATTGTGA, 0.107 E-score.
Regarding GAGGGGGA, the binding signal came to 0.0181 E-score.
The value for GAACAGTA was -0.0144 E-score; that for ACTGGACA was -0.0329 E-score.
Turning to GAACTGGA, the binding signal worked out at 0.0561 E-score.
Under AGTACAAT stands -0.0504 E-score.
The value for AACGTAAT was -0.24 E-score.
For CGATTTGA, the binding signal is -0.114 E-score.
The value for ATGATACA was 0.449 E-score; that for CCCGTCGA was -0.0775 E-score; that for AGTGAGCG was -0.0297 E-score.
Under AAAAGCGT stands -0.306 E-score.
The value for CTTTTGTC was -0.233 E-score.
AGAATTAA: the binding signal is -0.291 E-score.
The value for ATGTTCTA was -0.0275 E-score.
Under ACAGGCCA stands -0.161 E-score; under AGTTCGTA, -0.192 E-score; under AGGCGATA, 0.357 E-score.
The value for AAGACTAC was -0.14 E-score.
In the case of GTTCTTCA, the binding signal is -0.121 E-score.
The value for AGTTCATA was -0.0345 E-score; that for AGCACACC was 0.0833 E-score.
As to GCCAGCGC, the binding signal is -0.267 E-score.
Under AAAGGTGT stands 0.129 E-score; under CTGTTGGA, -0.103 E-score.
Under AAAGGTCG stands -0.274 E-score; under TGCACCCA, 0.04 E-score; under CTCCTCAA, -0.131 E-score.
Under AACACTCA stands 0.0752 E-score; under CCCAGAGG, -0.102 E-score.
CCCCACTA: the binding signal is 0.0174 E-score.
Regarding AAGGCCTA, the binding signal was -0.233 E-score.
The value for AGACGGAC was -0.143 E-score; that for CTCCGGTA was 0.244 E-score; that for CCTAGTTA was -0.17 E-score.
The value for AAGTGTCC was -0.0725 E-score; that for CTAGCCCC was 0.111 E-score.
The value for ATAAGCAC was -0.154 E-score; that for ACTACACA was -0.125 E-score; that for CTTGGCAC was -0.346 E-score.
On to CCCTGCAA, for which the binding signal was found to be 0.0559 E-score.
As to CATACCAG, the binding signal came to 0.171 E-score.
The value for AGACGTAG was -0.0694 E-score; that for TGCGCGCA was 0.0228 E-score.
ATCATAAT: the binding signal is 0.229 E-score.
As to ACCTTGGG, the binding signal turned out to be 0.157 E-score.
The value for ATCATCGA was 0.284 E-score; that for GGGCGGTA was 0.217 E-score; that for CGACATCC was -0.0112 E-score.
With ATTCCGCA, the binding signal was -0.0491 E-score.
Regarding GCGTGGGA, the binding signal was -0.122 E-score.
Under AGGATCAG stands 0.368 E-score; under CTAGACAA, -0.246 E-score; under AACGGCCT, -0.108 E-score.
With AAATTGAA, the binding signal is -0.328 E-score.
The value for AGAAGACA was -0.00308 E-score.
In the case of AAGACAAA, the binding signal is -0.223 E-score.
The value for GTTTACGA was -0.154 E-score; that for ACATAATC was 0.114 E-score.
The value for GAGATGTA was 0.215 E-score; that for ATCTTGCA was 0.216 E-score.
Under CCCTTACC stands -0.0984 E-score; under GTGCCAGA, -0.134 E-score; under TGCCTAAA, -0.206 E-score.
For ATTTAAAT, the binding signal is -0.143 E-score.
The value for AGCCTACG was -0.0694 E-score.
Under GTGCTACA stands -0.115 E-score; under TAGCCAAA, 0.0299 E-score.
The value for CGCCTTAC was -0.0226 E-score.
Regarding TTGGACAA, the binding signal was -0.191 E-score.
As to CCACTGCG, the binding signal is -0.0653 E-score.
Under AACATCAG stands -0.258 E-score.
Turning to ACGTGCGG, the binding signal is -0.172 E-score.
The value for ATACTAGG was 0.275 E-score; that for CAAGCAAG was -0.346 E-score.
